Measurements as given in a collection of fitness landscapes (doi:10.1126/science.1257360).
This is one part of the list.

B1: PhoQ; a variant is named by its letters at X, in order, P23837 (parent)
chain: MKKLLRLFFPLSLRVRFLLATAAVVLVLSLAYGMVALIGYSVSFDKTTFRLLRGESNLFYTLAKWENNKLHVELPENIDKQSPTMTLIYDENGQLLWAQRDVPWLMKMIQPDWLKSNGFHEIEADVNDTSLLLSGDHSIQQQLQEVREDDDDAEMTHSVAVNVYPATSRMPKLTIVVVDTIPVELKSSYMVWSWFIYVLSANLLLVIPLLWVAAWWSLRPIEALAKEVRELEEHNRELLNPATTRELTSLVRNLNRLLKSERERYDKYRTTLTDLTHSLKTPLXXLQXXLRSLRSEKMSVSDAEPVMLEQISRISQQIGYYLHRASMRGGTLLSRELHPVAPLLDNLTSALNKVYQRKGVNISLDISPEISFVGEQNDFVEVMGNVLDNACKYCLEFVEISARQTDEHLYIVVEDDGPGIPLSKREVIFDRGQRVDTLRPGQGVGLAVAREITEQYEGKIVAGESMLGGARMEVIFGRQHSAPKDE

Variants of: B1
Experiment: enrichment ratio after two sorts for PhoP signalling (ratio (wild type AVST 3.29)); higher = more functional
Settings: with PhoP (E. coli)

AADP and LPAF cannot be ordered by enrichment ratio: ≤ 0.25 for the first, ≤ 0.25 for the second.

MMRH and NRGY cannot be ordered by enrichment ratio: ≤ 0.25 for the first, ≤ 0.25 for the second.

EMSQ and NFFH cannot be ordered by enrichment ratio: ≤ 0.25 for the first, ≤ 0.25 for the second.

FLGN and YATS cannot be ordered by enrichment ratio: ≤ 0.25 for the first, ≤ 0.25 for the second.

Compared with QIYH, CSSY is higher in enrichment ratio: ≤ 0.25 for the first, 17.5 for the second.

VRLQ and VRVR cannot be ordered by enrichment ratio: ≤ 0.25 for the first, ≤ 0.25 for the second.

First: QHYC
Second: ALVK
The enrichment ratio of the first is lower: ≤ 0.25 for the first, 2.46 for the second.

NCDI and GVCP cannot be ordered by enrichment ratio: ≤ 0.25 for the first, ≤ 0.25 for the second.

ETHV and TLVN cannot be ordered by enrichment ratio: ≤ 0.25 for the first, ≤ 0.25 for the second.

Going from DVGR to VSKR, the enrichment ratio falls from 4.98 to ≤ 0.25.

Going from LNYS to QLGM, the enrichment ratio rises from ≤ 0.25 to 4.43.

WPKE and DQDM cannot be ordered by enrichment ratio: ≤ 0.25 for the first, ≤ 0.25 for the second.

First: MNFL
Second: KDID
The enrichment ratio of the first is higher: 14.1 for the first, ≤ 0.25 for the second.

NSIP and PSSV cannot be ordered by enrichment ratio: ≤ 0.25 for the first, ≤ 0.25 for the second.

First: IMVI
Second: IFNN
The enrichment ratio of the first is higher: 0.337 for the first, ≤ 0.25 for the second.

PVDW and KAQD cannot be ordered by enrichment ratio: ≤ 0.25 for the first, ≤ 0.25 for the second.

First: PHKL
Second: LNMM
The enrichment ratio of the first is lower: ≤ 0.25 for the first, 1.77 for the second.

SQNA and YPGR cannot be ordered by enrichment ratio: ≤ 0.25 for the first, ≤ 0.25 for the second.

GQKL and GNIY cannot be ordered by enrichment ratio: ≤ 0.25 for the first, ≤ 0.25 for the second.

FHDQ and RHTV cannot be ordered by enrichment ratio: ≤ 0.25 for the first, ≤ 0.25 for the second.

Going from DRRT to FAFH, the enrichment ratio falls from 0.539 to ≤ 0.25.

TVRC and KIQN cannot be ordered by enrichment ratio: ≤ 0.25 for the first, ≤ 0.25 for the second.

QMAY and CVFN cannot be ordered by enrichment ratio: ≤ 0.25 for the first, ≤ 0.25 for the second.

LDYD and PCFC cannot be ordered by enrichment ratio: ≤ 0.25 for the first, ≤ 0.25 for the second.

First: ASAE
Second: IKTY
The enrichment ratio of the first is higher: 5.56 for the first, ≤ 0.25 for the second.

Going from YKIV to AITC, the enrichment ratio rises from ≤ 0.25 to 19.

SMFS and DCAM cannot be ordered by enrichment ratio: ≤ 0.25 for the first, ≤ 0.25 for the second.

Compared with VNLG, DEQY is lower in enrichment ratio: 1.63 for the first, ≤ 0.25 for the second.

DTNI and AYAA cannot be ordered by enrichment ratio: ≤ 0.25 for the first, ≤ 0.25 for the second.

Going from HMPS to SVNY, the enrichment ratio rises from ≤ 0.25 to 0.873.

FLKL and FAYM cannot be ordered by enrichment ratio: ≤ 0.25 for the first, ≤ 0.25 for the second.

NQTK and QHCC cannot be ordered by enrichment ratio: ≤ 0.25 for the first, ≤ 0.25 for the second.

ITWS and QDTH cannot be ordered by enrichment ratio: ≤ 0.25 for the first, ≤ 0.25 for the second.

KNLC and NDNL cannot be ordered by enrichment ratio: ≤ 0.25 for the first, ≤ 0.25 for the second.

ISKR and HSRC cannot be ordered by enrichment ratio: ≤ 0.25 for the first, ≤ 0.25 for the second.

SQLR and WDLW cannot be ordered by enrichment ratio: ≤ 0.25 for the first, ≤ 0.25 for the second.

EAEQ and PHNL cannot be ordered by enrichment ratio: ≤ 0.25 for the first, ≤ 0.25 for the second.

REGS and KSCN cannot be ordered by enrichment ratio: ≤ 0.25 for the first, ≤ 0.25 for the second.

Compared with ICLQ, DYRK is lower in enrichment ratio: 9.87 for the first, ≤ 0.25 for the second.

SWSA and NLIN cannot be ordered by enrichment ratio: ≤ 0.25 for the first, ≤ 0.25 for the second.

DGED and YNRK cannot be ordered by enrichment ratio: ≤ 0.25 for the first, ≤ 0.25 for the second.

WFWA and EHVP cannot be ordered by enrichment ratio: ≤ 0.25 for the first, ≤ 0.25 for the second.

Going from GSMI to WWTQ, the enrichment ratio falls from 1.27 to ≤ 0.25.

KLTK and KSIH cannot be ordered by enrichment ratio: ≤ 0.25 for the first, ≤ 0.25 for the second.

KNSD and FPMH cannot be ordered by enrichment ratio: ≤ 0.25 for the first, ≤ 0.25 for the second.

Going from RYLT to YIMC, the enrichment ratio rises from ≤ 0.25 to 0.355.

VANR and FRKR cannot be ordered by enrichment ratio: ≤ 0.25 for the first, ≤ 0.25 for the second.

QLNS and ALFE cannot be ordered by enrichment ratio: ≤ 0.25 for the first, ≤ 0.25 for the second.

With FMPP the enrichment ratio was ≤ 0.25.
